# Source: paper PMC4336329 (PLoS ONE, 2015)
# Hit rate of the full screen: of about 310,000 compounds, about 2,200 (0.71%) showed an effect of 50% or more. The effect is printed as a negative number. Some of the results follow.
# Biological target: human ether-à-go-go-related gene (hERG) potassium channel (human, UniProt Q12809)
# Experiment: primary screen, population patch clamp on CHO cells stably expressing hERG
# human ether-à-go-go-related gene (hERG) potassium channel, sequence (Q12809 whole entry, looked up): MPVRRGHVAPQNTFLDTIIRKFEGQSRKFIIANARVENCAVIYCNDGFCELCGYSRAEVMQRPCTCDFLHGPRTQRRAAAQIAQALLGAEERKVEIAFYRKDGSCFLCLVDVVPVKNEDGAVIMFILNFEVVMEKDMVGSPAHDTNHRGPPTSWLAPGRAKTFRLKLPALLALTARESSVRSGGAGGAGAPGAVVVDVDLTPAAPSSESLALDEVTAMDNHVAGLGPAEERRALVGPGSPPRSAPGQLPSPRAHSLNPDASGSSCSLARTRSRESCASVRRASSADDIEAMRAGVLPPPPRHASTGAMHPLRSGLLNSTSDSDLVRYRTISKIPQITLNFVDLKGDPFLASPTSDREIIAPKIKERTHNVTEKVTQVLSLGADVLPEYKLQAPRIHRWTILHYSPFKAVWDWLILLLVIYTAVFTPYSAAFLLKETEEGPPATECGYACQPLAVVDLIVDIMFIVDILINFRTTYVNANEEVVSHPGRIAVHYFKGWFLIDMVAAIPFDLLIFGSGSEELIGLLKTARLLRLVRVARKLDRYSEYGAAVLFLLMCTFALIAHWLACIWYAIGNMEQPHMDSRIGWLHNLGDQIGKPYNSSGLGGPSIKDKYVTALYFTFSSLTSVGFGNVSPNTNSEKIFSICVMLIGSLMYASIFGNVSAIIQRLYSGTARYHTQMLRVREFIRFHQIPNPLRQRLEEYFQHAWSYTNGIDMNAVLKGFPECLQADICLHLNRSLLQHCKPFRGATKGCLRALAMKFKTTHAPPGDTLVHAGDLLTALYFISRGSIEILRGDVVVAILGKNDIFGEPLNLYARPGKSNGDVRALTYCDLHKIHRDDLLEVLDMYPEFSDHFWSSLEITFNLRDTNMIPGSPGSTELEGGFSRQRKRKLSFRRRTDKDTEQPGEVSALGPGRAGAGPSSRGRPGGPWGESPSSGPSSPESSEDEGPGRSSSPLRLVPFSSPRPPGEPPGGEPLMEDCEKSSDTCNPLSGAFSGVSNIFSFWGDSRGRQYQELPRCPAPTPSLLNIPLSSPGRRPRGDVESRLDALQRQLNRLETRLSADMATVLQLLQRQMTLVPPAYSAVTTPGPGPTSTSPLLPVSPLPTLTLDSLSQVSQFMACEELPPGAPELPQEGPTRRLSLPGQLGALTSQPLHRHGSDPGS
row,SMILES,"hERG current change (%, negative = inhibition) at 1uM [%]"
1,CCc1ccc(OCc2nnc(SCC(=O)NCC3CCCO3)n2C)cc1 (centres unmarked),-1.08
2,CCOC(=O)C1=C(C)NC2=C(C(=O)C(C(=O)OCC)C(c3cccc(OC)c3)C2)C1c1ccccn1 (centres unmarked),12.4
3,CCCn1c(SCC(=O)NC(C)c2ccccc2)n[nH]c1=O (centres unmarked),17.2
4,C/C(Cn1cnc([N+](=O)[O-])n1)=N\NC(=O)c1ccncc1,14.6
5,CC(=O)N1CCOc2ccc(S(=O)(=O)N3CCCCC3)cc21,15.1
6,COc1ccc(/C=C/C(=O)OCC(=O)NCCC2=CCCCC2)cc1OC,3.78
7,COc1ccccc1NC(=O)c1ccc(COc2ccccc2OC)o1,0.973
8,CC1CCCN(CCOc2ccc(Br)cc2)C1 (centres unmarked),-21
9,O=C(Nc1ccccc1OC(F)F)c1cc2c(s1)CCC2,6.76
10,C=CCOc1ccc2c(c1)c(S(=O)(=O)c1ccc(C)cc1)cn2COC,11.3
11,O=C(CSc1nnc(-c2cccnc2)o1)c1cc2ccccc2oc1=O,17
12,CC(C)(C)c1ccc(CNC(=O)C2CCCN2C(=O)Nc2ccccc2)cc1 (centres unmarked),-4.44
13,COc1ccc2c(c1)C=C(CN1CCN(C3CCCC3)C(CCO)C1)CO2 (centres unmarked),-41.1
14,CNC(=S)N(CCc1ccc(OC)c(OC)c1)C1CC(=O)N(c2ccccc2)C1=O (centres unmarked),9.94
15,COc1ccc2nc(SCC(=O)c3c(N)n(C4CC4)c(=O)[nH]c3=O)[nH]c2c1,10.8
16,CCc1c(C)c2ccc(O)c(CN3CCCC3)c2oc1=O,13.6
17,COc1ccc(N2C(=O)C(CC(=O)Nc3ccc(Cl)cc3)N(NC(=O)c3cccc(F)c3)C2=S)cc1 (centres unmarked),14.6
18,COCCCNC(=O)CC(NCCCOC)C(=O)O (centres unmarked),8.81
19,CCCC1=C(C(=O)OCC)C(c2cccs2)n2ncnc2N1 (centres unmarked),9.85

row,SMILES,"hERG current change (%, negative = inhibition) at 1uM [%]"
1,COc1ccc(CN2CCN(c3cccc(C)c3C)CC2)cc1OC,-61.1
2,CC1CC(N(C(=O)C2CC2)c2ccccc2)c2ccccc2N1C(=O)C1CC1 (centres unmarked),3.81
3,Cc1ccc(C(=O)O)cc1NC(=O)CN1C(=O)C2C3c4ccccc4C(Br)(c4ccccc43)C2C1=O (centres unmarked),13.1
4,COc1cc(/C=C(\C#N)C(=O)NC2CCCCC2C)ccc1OS(=O)(=O)c1ccc(C)cc1 (centres unmarked),3.16
5,O=C1CN(Cc2nc3cc(Cl)ccc3c(=O)[nH]2)CCN1,22.9
6,CC[N+](CC)(CCCCS(=O)(=O)[O-])CCNP1(=O)C=C(c2ccccc2)OC(c2ccccc2)=C1,5.87
7,Cc1[nH]nc2c1C1(C(=O)Nc3ccc([N+](=O)[O-])cc31)C(C#N)=C(N)O2 (centres unmarked),13.4
8,Cc1ccc(C)c(NC(=O)c2cc3ccccn3n2)c1,-5.37
9,Cc1cc(C)c(O)c(-c2cc(C(=O)Nc3cccnc3)[nH]n2)c1,5.7
10,O=c1ccc2cc(S(=O)(=O)N3CCN(c4ccccc4)CC3)ccc2o1,-0.671
11,CCCc1cc(=O)[nH]c(SCc2ccccc2)n1,9.6
12,Brc1ccc(-c2nc(-c3ccncc3)no2)o1,2.74
13,COc1cc(NC(=O)COc2ccc3c(C)cc(=O)oc3c2C)cc(OC)c1OC,26.2
14,CCn1c2ccccc2n2c(=O)c(=O)n(CC(=O)Nc3ccc(C(C)C)cc3)nc12,11
15,Cc1ccc2c(C)nc(/N=C(\N)NC(=O)N3c4ccccc4Sc4ccccc43)nc2c1,12.9
16,COCC(=O)Nc1c(C(=O)Nc2ccccc2OC)oc2ccccc12,1.31
17,NC(=O)Nc1ccccc1C(=O)Nc1ccc2ccccc2c1,15.1
18,CN1N=C(C(C)(C)C)CC1=O,9.34
19,COc1ccc(-n2nc(C(=O)N3CCCCC3)c3ccccc3c2=O)cc1,1.59

row,SMILES,"hERG current change (%, negative = inhibition) at 1uM [%]"
1,CCCCNC(=S)NNC(=O)c1c(C)nc2ccccn12,16.1
2,COc1cccc(NC(=O)c2ccc(-c3ccccc3[N+](=O)[O-])o2)c1,-2.99
3,Cc1cccc(Nc2n[nH]c(=S)s2)c1C,11.6
4,CCOC(=O)c1sc(NC(=O)CN2C(=O)NC3(CCC(C)CC3)C2=O)c(C(=O)OCC)c1C (centres unmarked),8.8
5,CCOc1ccc(N=C2SC(C(=O)Nc3ccccc3C#N)C(N)=C2C(=O)Nc2ccc(Cl)cc2)cc1 (centres unmarked),14.1
6,O=C(CC12CCC(CC1)C2)NCc1ccc2c(c1)OCO2,11.3
7,CN1CC(=O)N(CC(=O)N2CCC(Cc3ccccc3)CC2)C1=O,11.9
8,COc1ccc(C(=O)Nc2c3c(nn2-c2ccc(Cl)cc2)CS(=O)(=O)C3)cc1,12.2
9,CC1CCN(c2c(NCC3CCC(C(=O)N4CCc5ccccc5C4)CC3)c(=O)c2=O)CC1 (centres unmarked),11
10,CC(C)NCC(O)COCCOc1ccc(C(C)(C)C)cc1.Cl (centres unmarked),-2.27
11,CCOc1ccc2nc(N3CCCCCC3)sc2c1,-13.2
12,CCOCCCNC(C(=O)Nc1ccc(OC)c(Cl)c1)c1ccccc1 (centres unmarked),-10.2
13,COc1ccc(-c2sc3cc(OC)c(OC)cc3c2C#CC(C)(C)O)cc1,17.8
14,COc1ccccc1N1CCN(CCC(=O)Nc2ccc(F)cc2)CC1,10.2
15,COc1cccc(C(=O)Nc2ccc(S(=O)(=O)N3CCN(C)CC3)cc2)c1,2.57
16,O=C(COC(=O)c1ccc(F)cc1)NCCCc1ccccc1,4.68
17,O=C(c1ccc(S(=O)(=O)Nc2cccc(C(F)(F)F)c2)cc1)N1CCN(c2ccccc2O)CC1,0.994
18,CC(C)CN(C(=O)c1cccc(S(=O)(=O)N2CCN(Cc3ccccc3)CC2)c1)C1CCS(=O)(=O)C1 (centres unmarked),6.94
